Reference: publication PMC8041205 (2021)

Molecular target: BSA
Assay: ITC

B1: commercially available recombinant MyD88 (natural protein)
chain: MAAGGPGAGSAAPVSSTSSLPLAALNMRVRRRLSLFLNVRTQVAADWTALAEEMDFEYLEIRQLETQADPTGRLLDAWQGRPGASVGRLLELLTKLGRDDVLLELGPSIEEDCQKYILKQQQEEAEKPLQVAAVDSSVPRTAELAGITTLDDPLGHMPERFDAFICYCPSDIQFVQEMIRQLEQTNYRLKLCVSDRDVLPGTCVWSIASELIEKRCRRMVVVVSDDYLQSKECDFQTKFALSLSPGAHQKRLIPIKYKAMKKEFPSILRFITVCDYTNPCTKSWFWTRLAKALSLP
Kd: > 10 mM
